The results in this text go back to the antibiotic and cytotoxicity screens of Wong et al. (2023).

This is one part of the list.

One assay deals with HSkMC. Nature of the assay: cytotoxicity call (relative viability < 0.9). Conditions: 10 µM.
For another assay, the system named is HepG2. Nature of the assay: cytotoxicity call (relative viability < 0.9). Conditions: 10 µM.
The test system of a further assay is S. aureus RN4220. Nature of the assay: growth inhibition call (relative growth <= 0.2). Conditions: 50 µM.

Regarding `C[C@@H]1CN([C@@H](C)CO)C(=O)c2cc(C#CC3CCCCC3)cnc2O[C@H]1CN(C)C(=O)c1ccncc1`, the cytotoxicity call in the assay with HSkMC and in the assay on HepG2 was “inactive” in each case. Besides, the growth inhibition call in the assay on S. aureus RN4220 is “inactive”.
With `CN1C(=O)c2cc(NS(=O)(=O)c3cccc(F)c3)ccc2OC[C@H]2O[C@@H](CC(=O)NCCN3CCCCC3)CC[C@@H]21`, the cytotoxicity call with HSkMC and with HepG2 was “inactive” in each case. Moreover, the growth inhibition call in the assay on S. aureus RN4220 is “inactive”.
As to `O=C(C[C@H]1CC[C@@H]2[C@H](COC[C@@H](O)CN2S(=O)(=O)c2cccc(F)c2)O1)NCCCN1CCOCC1`, the cytotoxicity call with HSkMC and with HepG2 was “inactive” each time. For the same molecule, the growth inhibition call with S. aureus RN4220 is “inactive”.
Regarding `Cc1noc(C)c1NC(=O)Nc1ccc2c(c1)C(=O)N([C@@H](C)CO)C[C@H](C)[C@@H](CN(C)Cc1ccc(C(=O)Nc3ccccc3N)cc1)O2`, the cytotoxicity call with HSkMC and in the assay with HepG2 was “inactive” in each case. Moreover, the growth inhibition call in the assay with S. aureus RN4220 is “inactive”.
Regarding `C[C@@H]1CCCCO[C@@H](CN(C)Cc2ccc(C(=O)O)cc2)[C@@H](C)CN([C@H](C)CO)C(=O)c2cc(NS(=O)(=O)c3ccc(F)cc3)ccc2O1`, the cytotoxicity call in the assay on HSkMC and in the assay with HepG2 was “inactive” throughout. In addition, the growth inhibition call in the assay with S. aureus RN4220 is “inactive”.
For `O=C(Nc1ccc(F)cc1)N[C@@H]1C[C@@H]2O[C@@H](CO)CC[C@@H]2O[C@@H]1CCc1ccc(-c2ccccc2)cc1`, the cytotoxicity call in the assay with HSkMC and with HepG2 was “inactive” each time. For the same molecule, the growth inhibition call in the assay on S. aureus RN4220 was “inactive”.
For the molecule `Cc1noc(C)c1S(=O)(=O)N(C)C[C@H]1OCCCC[C@@H](C)Oc2ccc(NS(=O)(=O)c3cn(C)cn3)cc2C(=O)N([C@@H](C)CO)C[C@H]1C`, the cytotoxicity call with HSkMC and in the assay with HepG2 was “inactive” each time. Besides, the growth inhibition call in the assay with S. aureus RN4220 is “inactive”.
With `C[C@H](CO)N1C[C@H](C)[C@H](CN(C)S(=O)(=O)c2cn(C)cn2)Oc2ncc(C#Cc3cccc(F)c3)cc2C1=O`, the cytotoxicity call with HSkMC and with HepG2 was “inactive” throughout. Moreover, in the assay with S. aureus RN4220, the growth inhibition call was “inactive”.
Take `C[C@H]1CN([C@@H](C)CO)C(=O)Cc2cc(NC(=O)Nc3ccc4c(c3)OCO4)ccc2O[C@@H]1CN(C)Cc1ccc(Oc2ccccc2)cc1`: the cytotoxicity call in the assay on HSkMC and in the assay on HepG2 was “inactive” in each case. In addition, the growth inhibition call with S. aureus RN4220 was “inactive”.
In the case of `COc1ccc2c3c(n(c2c1)C)[C@H](CO)N(C[C@]13CN(Cc2cccnc2)C1)S(=O)(=O)c1ccc(cc1)C`, the cytotoxicity call in the assay on HSkMC and in the assay with HepG2 was “inactive” in each case. In the assay with S. aureus RN4220, the growth inhibition call is “inactive”.
Regarding `C[C@@H]1CN([C@H](C)CO)C(=O)c2cccc(NC(=O)Nc3ccc(C(F)(F)F)cc3)c2O[C@@H]1CN(C)Cc1ccc(Cl)c(Cl)c1`, the cytotoxicity call in the assay with HSkMC and in the assay on HepG2 was “active” throughout. The growth inhibition call in the assay with S. aureus RN4220 is “inactive”.
For the molecule `C[C@@H]1CN([C@H](C)CO)C(=O)c2cc(NS(=O)(=O)c3ccc(F)cc3)ccc2O[C@H]1CN(C)Cc1ccc(-c2ccccc2)cc1`, the cytotoxicity call with HSkMC is “inactive”. The cytotoxicity call in the assay with HepG2 is “active”. In addition, in the assay with S. aureus RN4220, the growth inhibition call is “inactive”.
On to `C[C@H]1CCCCO[C@H](CN(C)Cc2ccccc2)[C@@H](C)CN([C@@H](C)CO)C(=O)c2cc(NS(=O)(=O)c3ccccc3)ccc2O1`, for which the cytotoxicity call in the assay with HSkMC and in the assay on HepG2 was “inactive” each time. Also, in the assay with S. aureus RN4220, the growth inhibition call was “inactive”.
Consider `C[C@@H]1CN([C@@H](C)CO)C(=O)c2cc(NC(=O)Nc3cccc4ccccc34)ccc2O[C@@H]1CN(C)S(=O)(=O)c1ccc(Cl)cc1`, for which the cytotoxicity call with HSkMC and in the assay with HepG2 was “inactive” throughout. The growth inhibition call in the assay on S. aureus RN4220 is “inactive”.
Regarding `Cc1noc(C)c1NC(=O)Nc1ccc2c(c1)C(=O)N([C@H](C)CO)C[C@H](C)[C@@H](CN(C)S(=O)(=O)c1ccccc1)OCCCC[C@H](C)O2`, the cytotoxicity call in the assay with HSkMC and with HepG2 was “inactive” throughout. In addition, the growth inhibition call with S. aureus RN4220 was “inactive”.
Consider `CC(C)NC(=O)Nc1cccc2c1O[C@H](CN(C)C(=O)Nc1ccc3c(c1)OCO3)[C@@H](C)CN([C@@H](C)CO)C2=O`, for which the cytotoxicity call with HSkMC and in the assay with HepG2 was “inactive” throughout. For the same molecule, the growth inhibition call in the assay with S. aureus RN4220 was “inactive”.
As for `C[C@H](CO)N1C[C@H](C)[C@@H](CN(C)C(=O)Nc2cccc3ccccc23)Oc2c(NC(=O)C3CCCCC3)cccc2C1=O`, the cytotoxicity call in the assay on HSkMC and in the assay on HepG2 was “inactive” in each case. Moreover, the growth inhibition call in the assay on S. aureus RN4220 is “inactive”.
Turning to `O=C(C[C@@H]1CC[C@@H]2[C@H](COC[C@H](O)CN2S(=O)(=O)c2ccc(Cl)cc2)O1)NCC1CCCCC1`, the cytotoxicity call in the assay with HSkMC and in the assay on HepG2 was “inactive” in each case. In the assay on S. aureus RN4220, the growth inhibition call is “inactive”.
`CC(C)NC(=O)Nc1ccc2c(c1)CC(=O)N([C@H](C)CO)C[C@H](C)[C@@H](CN(C)S(=O)(=O)c1ccc(Cl)cc1)O2`: the cytotoxicity call in the assay on HSkMC and with HepG2 was “inactive” each time. The growth inhibition call in the assay on S. aureus RN4220 is “inactive”.
As for `CCOC(=O)CNC(=O)c1cnn2cccnc12`, the cytotoxicity call in the assay on HSkMC and with HepG2 was “inactive” in each case. Further, the growth inhibition call with S. aureus RN4220 was “inactive”.
Take `C[C@@H]1CCCCO[C@H](CN(C)S(=O)(=O)c2ccccc2)[C@@H](C)CN([C@@H](C)CO)C(=O)c2cc(NC(=O)Nc3ccc4c(c3)OCO4)ccc2O1`: the cytotoxicity call in the assay on HSkMC and in the assay with HepG2 was “inactive” each time. Besides, the growth inhibition call with S. aureus RN4220 was “inactive”.
In the case of `C[C@@H]1CCCCO[C@H](CN(C)CC2CCCCC2)[C@@H](C)CN([C@H](C)CO)C(=O)c2cc(NS(=O)(=O)c3ccccc3)ccc2O1`, the cytotoxicity call with HSkMC and in the assay on HepG2 was “inactive” in each case. In addition, the growth inhibition call in the assay on S. aureus RN4220 was “inactive”.
As to `C=CC[C@@H](CC(=O)NCCO)C(=O)N[C@@H](COC(=O)[C@H](CC=C)CC(=O)OC(C)(C)C)Cc1c[nH]c2ccccc12`, the cytotoxicity call in the assay on HSkMC (human skeletal muscle cells) and with HepG2 was “inactive” in each case. For the same molecule, the growth inhibition call in the assay on S. aureus RN4220 was “inactive”.
